# Source: PubChem BioAssay AID504832 (National Center for Advancing Translational Sciences (NCATS), 2011)
# In all, about 310,000 compounds went through this assay and about 18,000 (5.8%) were called active. Inconclusive results, whose numbers are uncertain, are shown with a selection of clear calls. The call rests on the fitted dose curve; in most records, active means well fitted inhibition curve with a large enough effect; inconclusive means small, poorly fitted or top-dose-only effect, or another doubt; inactive means no such curve, though single readings can be large or run the other way. Potencies of inconclusive entries are left out as doubtful fits.
# Assay: Primary qHTS for delayed death inhibitors of the malarial parasite plastid, 48 hour incubation
# Conditions: P. falciparum luciferase growth in erythrocytes; series mostly up to 28.7 µM; activity change, negative = inhibition: at the top concentration
# How it was run: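 Here the parasites carry a stable luciferase gene and grow inside erythrocytes in Albumax-based RPMI medium with compound for one erythrocytic cycle. Activity is scored as loss of luminescent signal.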
# On the % scale 0 is the no-effect control and ±100 the full control effect; potency means the concentration at half of the fitted maximal effect; tags describe the fitted curve by direction and shape.
Compound,Potency,"activity change, negative = inhibition"
Cc1ccc(/C=C/C(=O)C2C(=O)c3ccccc3C2=O)cc1,active: 1.65 µM,
CCC(C)[C@H]1CNCCN1CCC12CC3CC(CC(C3)C1)C2 (stereo partly drawn),"inconclusive [inhibitor, partial curve, poor fit]",
Fc1ccc(-c2cc(C(F)(F)F)nc(NCC3CCCO3)n2)cc1 (stereo not drawn),"inconclusive [inhibitor, single point]",
COc1ccc(/C=N/Nc2nc(C)c([N+](=O)[O-])c(N(C)c3ccccc3)n2)cc1OC,,inactive: 21.1%
COc1ccc(CNC(=O)c2cc(=O)c3cc(C)ccc3o2)cc1,,inactive: 12.6%
Cc1cccc(C)c1NC(=O)CN(C)C(C)C(=O)Nc1ccccc1-c1ccccc1 (stereo not drawn),"inconclusive [inhibitor, single point]",
O=C(O)c1ccccc1C(=O)Nc1ccc(-n2nccc2C(F)(F)F)cc1,,inactive: 12.1%
CCn1cc(CN2CCC(C(=O)Nc3cccc(-c4cscn4)c3)CC2)cn1,"inconclusive [inhibitor, full curve, poor fit]",
Cc1cccc(N=Nc2c(N)n[nH]c2-c2ccc(Cl)cc2)c1,"inconclusive [inhibitor, single point]",
CCn1c(SCc2cccc(C)c2)nnc1-c1ccc(C)cc1,"inconclusive [inhibitor, single point]",
Cc1ccccc1-n1c(SCC(=O)N/N=C/c2c(C)nn(-c3ccccc3)c2C)nc2ccccc2c1=O,"inconclusive [inhibitor, single point]",
CCCSC1=N/C(=C/c2ccsc2)C(=O)N1c1ccccc1,"inconclusive [inhibitor, partial curve, poor fit]",
Cc1ccc(/C=N/NC(=O)c2cccs2)cc1[N+](=O)[O-],,inactive: 72.3%
Cc1nn2c(NCCN3CCOCC3)c3c(nc2c1-c1ccccc1)CCCC3,"inconclusive [inhibitor, partial curve]",
CCOC(=O)C1CCCN(C(=O)c2cccc(S(=O)(=O)N3CCCC3)c2)C1 (stereo not drawn),"inconclusive [inhibitor, single point]",
CCOC(=O)c1ccc(N=Nc2c(C)[nH]n(-c3ccccc3)c2=O)cc1,,inactive: -3.7%
CC(=O)N(C1=NCCCS1)c1ccc(F)cc1,"inconclusive [inhibitor, partial curve, poor fit]",
Cn1c(N)c(C(=O)COC(=O)CSc2ccc3ccccc3c2)c(=O)n(C)c1=O,,inactive: -0.738%
N#C/C(=C\c1cccc(O)c1)C(=O)Nc1ccc2c(c1)OCCO2,"inconclusive [inhibitor, partial curve, poor fit]",
O=C(Nc1sccc1C(=O)N1CCOCC1)c1cccnc1,,inactive: 36.4%
Cc1oc2c(O)c(O)ccc2c(=O)c1-c1cnn(-c2ccccc2)c1,"inconclusive [inhibitor, single point]",
C/C=C\C=C\C(=O)N1CC2(CC(c3cccc(NC(=O)CC)c3)=NO2)C[C@H]1C(N)=O (stereo partly drawn),,inactive: 30.4%

Compound,Potency,"activity change, negative = inhibition"
CCOc1ccc(-n2c(SCC(=O)NC(C)CC)nc3n[nH]c(C)c3c2=N)cc1 (stereo not drawn),"inconclusive [inhibitor, partial curve]",
CN(C)CCCCOc1ccc(Br)cc1Cl,"inconclusive [inhibitor, single point]",
CCOc1ccc(N(C(C)C(=O)N2CCCCCC2)S(C)(=O)=O)cc1 (stereo not drawn),"inconclusive [inhibitor, partial curve, poor fit]",
Cc1cccc(CSc2ccc3nnc(-c4ccccn4)n3n2)c1,active: 3.7 µM,
Cc1ccccc1NCC(=O)N/N=C/C(Br)=C/c1ccccc1,,inactive: 12.6%
CC1=C(CC/C(C)=N/NC(N)=S)C(C)(C)CCC1,"inconclusive [inhibitor, single point]",
O=C(Nc1ccc2c(c1)nc1n2CCN(Cc2ccccc2)C1)c1cccs1,"inconclusive [inhibitor, single point]",
N#CC(C(=O)C1CCCCC1)c1nc2ccccc2[nH]1 (stereo not drawn),"inconclusive [inhibitor, single point]",
COc1nc(N(C)C)nc(N2CC(=O)N(CCNS(=O)(=O)c3ccc(C)cc3)C2=N)n1,"inconclusive [inhibitor, single point]",
COc1ccc(C(=O)N/N=C(\C)c2ccccn2)cc1OC,"inconclusive [inhibitor, full curve]",
CCO[C@H]1OC(C(=O)N2CCCCCCC2)=C[C@@H](c2coc3ccccc3c2=O)[C@@H]1CCCO,,inactive: -12.1%
Cc1ccnc(NS(=O)(=O)c2ccc(NC(=O)Cc3ccccc3)cc2)n1,,inactive: -19.7%
COc1ccccc1C(CNC(=O)c1cccc(S(=O)(=O)Nc2ccc(C)cc2)c1)N1CCCC1 (stereo not drawn),active: 13.1 µM,
NC(=O)c1nsc(C(=O)N(c2ccccc2)C(C(=O)NCc2ccc(F)cc2)c2ccc(O)cc2)c1N (stereo not drawn),"inconclusive [inhibitor, single point]",
O=C(NCc1ccccc1)C12CN(Cc3ccccc3)CC1C(c1cccc([N+](=O)[O-])c1)=NO2 (stereo not drawn),"inconclusive [inhibitor, full curve, poor fit]",
COc1cc(N/N=C(\C)c2ccc(O)c(C)c2)nc(-c2ccccc2)n1,"inconclusive [inhibitor, partial curve]",
COc1cccc(CNC(=O)CCCn2nc(C)c3c(C)n(-c4ccc(C)cc4)nc3c2=O)c1OC,"inconclusive [inhibitor, partial curve]",
CC(C)(C)c1cc(CCC(=O)NCc2ccncc2)cc(C(C)(C)C)c1O,"inconclusive [inhibitor, single point]",
CCOC(=O)c1c(-c2ccc(-c3ccccc3)cc2)csc1NC(=O)CCN1CCOCC1,"inconclusive [inhibitor, single point]",
O=[N+]([O-])c1ccc(NCc2ccc3c(c2)OCO3)cc1,,inactive: 53.9%
Cc1cc2c(cc1C)NC(=O)CC(C(F)(F)C(F)(F)C(F)(F)F)=N2,"inconclusive [inhibitor, single point]",
